From patent US20210392892A1, “COMPOSITIONS COMPRISING PYRIDINE CARBOXYLATE HERBICIDES AND ACETYL COA CARBOXYLASE (ACCASE) INHIBITOR HERBICIDES” (Corteva Agriscience LLC, priority 2018, published 2021)
Where “and” joins values, the source holds several entries; their conditions need not be identical. Equal values may be shown once. At least one read-out could not be matched to a standard name with certainty.

How the values were obtained:
Assay in all cases: Greenhouse postemergence herbicidal effect (visual injury)
Format in all cases: in vivo
[1] = system: LOLMU, Lolium multiflorum (Italian ryegrass)
Text: (§1) Seeds of the desired test plant species were planted in a 90:10% v/v (volume/volume) mixture of PRO-MIX® BX (Premier Tech Horticulture, Quakertown, Pa., USA) and PROFILE® GREENS GRADE™ (Profile Products LLC, Buffalo Grove, Ill., USA) planting mixture, which typically has a pH of 5.2 to 6.2 and an organic matter content of at least 50 percent, in plastic pots with a surface area of 103.2 square centimeters (cm^2). In some aspects, to help ensure good germination and healthy plants, a fungicide treatment and/or other chemical or physical treatment was applied. The plants were grown for 7-36 days (d) in a greenhouse with an approximate 14-hour (h) photoperiod which was maintained at about 23° C. during the day and 22° C. during the night. Nutrients and water were added on a regular basis and supplemental lighting was provided with overhead metal halide 1000-Watt lamps as necessary. The plants were employed for testing when they reached the second or third true leaf stage.
(§2) Emulsifiable concentrates of each of each pyridine carboxylate herbicide (Compound A or Compound B) were prepared at 100 grams acid equivalent per liter (g ae/L). The emulsifiable concentrates also included a safener, cloquintocet-mexyl, at 120 grams active ingredient per liter (g ai/L), unless otherwise noted below. An aliquot of each emulsifiable concentrate was placed in a 25 mL glass vial and diluted with an aqueous mixture of 1.25% (v/v) ACTIROB® B esterified rapeseed oil (Bayer Crop Science, Research Triangle Park, N.C., USA) or MSO® Concentrate with LECI-TECH® methylated soybean oil (Loveland Products, Loveland, Colo., USA) to obtain concentrated stock solutions at the highest application rate for each herbicide, based upon a 12 milliliter (mL) application volume at a rate of 187 liters per hectare (L/ha). The concentrated stock solutions were further diluted with an aqueous mixture of 1.25% v/v ACTIROB® B or MSO® Concentrate with LECI-TECH® to obtain stock solutions at reduced application rates for each herbicide. Spray solutions of the herbicide combinations (Compound A or Compound B plus ACCase inhibitor herbicide) were prepared by adding weighed amounts or aliquots of the ACCase inhibitor herbicide to the stock solutions of Compound A or Compound B to form 12-mL spray solutions in two-way combinations.
(§3) The spray solutions were applied to the plant material with an overhead Mandel track sprayer equipped with 8002E nozzles calibrated to deliver 187 L/ha over an application area of 0.503 square meters (m^2) at a spray height of 18 inches (43 centimeters (cm)) above the average plant canopy. Control plants were sprayed in the same manner with the solvent blank. All pyridine carboxylate herbicide (component a) application rates are given as “g ae/ha” and all ACCase inhibitor herbicide (component b) application rates are given as “g ai/ha.”
(§4) The treated plants and control plants were placed in a greenhouse as described above and watered by sub-irrigation to prevent wash-off of the test compounds. After 20-22 d, the condition of the test plants as compared with that of the control plants was determined visually and scored on a scale of 0 to 100 percent where 0 corresponds to no injury and 100 corresponds to complete kill.

[2] = system: AVEFA, Avena fatua (wild oat)
Text: as §1, §2, §3, §4

[3] = system: ALOMY, Alopecurus myosuroides (blackgrass)
Text: as §1, §2, §3, §4

[4] = system: ECHCG, Echinochloa crus-galli (barnyardgrass)
Text: as §1, §2, §3, §4

[5] = system: CYPES, Cyperus esculentus (nutsedge)
Text: as §1, §2, §3, §4

[6] = system: DIGSA, Digitaria sanguinalis (large crabgrass)
Text: as §1, §2, §3, §4

[7] = 7.5 g ae/ha, with cloquintocet-mexyl
[8] = 7.5 g ae/ha, without cloquintocet-mexyl
[9] = 10 g ae/ha, with cloquintocet-mexyl
[10] = 10 g ae/ha, without cloquintocet-mexyl

CCSC(C)CC1CC(=O)C(C(CC)=NOC/C=C/Cl)=C(O)C1 (stereo not shown) [Clethodim, reference compound]
% visual injury, Obs ([1]; 70 g ai/ha): 95% | % visual injury, Obs ([2]; 70 g ai/ha): 95% | % visual injury, Obs ([3]; 70 g ai/ha): 95% | % visual injury, Obs ([4]; 70 g ai/ha): 90% | % visual injury, Obs ([5]; 70 g ai/ha): 15% | % visual injury, Obs ([6]; 70 g ai/ha): 95%

N#CCOC(=O)c1nc(-c2ccc3cc[nH]c3c2F)c(F)c(N)c1Cl [Compound A, cyanomethyl 4-amino-3-chloro-5-fluoro-6-(7-fluoro-1H-indol-6-yl)pyridine-2-carboxylate]
% visual injury, Obs [1, 7]: 8% | % visual injury, Obs [1, 8]: 0% | % visual injury, Obs [1, 9]: 3% | % visual injury, Obs [1, 10]: 0% | % visual injury, Obs ([1]; LOLMU, Compound A 7.5 g/ha, Fluazifop 0 g/ha): 0% | % visual injury, Obs ([1]; LOLMU, Compound A 7.5 g/ha, Haloxyfop-R-methyl 0 g/ha): 0% | % visual injury, Obs ([1]; LOLMU, Compound A 7.5 g/ha, Quizalofop-P-ethyl 0 g/ha): 0% | % visual injury, Obs ([1]; LOLMU, Compound A 10 g/ha, Fluazifop 0 g/ha): 0% | % visual injury, Obs ([1]; LOLMU, Compound A 10 g/ha, Haloxyfop-R-methyl 0 g/ha): 0% | % visual injury, Obs ([1]; LOLMU, Compound A 10 g/ha, Quizalofop-P-ethyl 0 g/ha): 0% | % visual injury, Obs [2, 7]: 0% | % visual injury, Obs [2, 8]: 0% | % visual injury, Obs [2, 9]: 0% | % visual injury, Obs [2, 10]: 0% | % visual injury, Obs ([2]; AVEFA, Compound A 7.5 g/ha, Fluazifop 0 g/ha): 0% | % visual injury, Obs ([2]; AVEFA, Compound A 7.5 g/ha, Haloxyfop-R-methyl 0 g/ha): 0% | % visual injury, Obs ([2]; AVEFA, Compound A 7.5 g/ha, Quizalofop-P-ethyl 0 g/ha): 0% | % visual injury, Obs ([2]; AVEFA, Compound A 10 g/ha, Fluazifop 0 g/ha): 0% | % visual injury, Obs ([2]; AVEFA, Compound A 10 g/ha, Haloxyfop-R-methyl 0 g/ha): 0% | % visual injury, Obs ([2]; AVEFA, Compound A 10 g/ha, Quizalofop-P-ethyl 0 g/ha): 0% | % visual injury, Obs [3, 7]: 0% | % visual injury, Obs [3, 8]: 0% and 5% | % visual injury, Obs [3, 9]: 0% | % visual injury, Obs [3, 10]: 0% and 8% | % visual injury, Obs ([3]; ALOMY, Compound A 7.5 g/ha, Fluazifop 0 g/ha): 0% | % visual injury, Obs ([3]; ALOMY, Compound A 7.5 g/ha, Haloxyfop-R-methyl 0 g/ha): 5% | % visual injury, Obs ([3]; ALOMY, Compound A 7.5 g/ha, Quizalofop-P-ethyl 0 g/ha): 5% | % visual injury, Obs ([3]; ALOMY, Compound A 10 g/ha, Fluazifop 0 g/ha): 0% | % visual injury, Obs ([3]; ALOMY, Compound A 10 g/ha, Haloxyfop-R-methyl 0 g/ha): 8% | % visual injury, Obs ([3]; ALOMY, Compound A 10 g/ha, Quizalofop-P-ethyl 0 g/ha): 8% | % visual injury, Obs [4, 7]: 68% and 80% | % visual injury, Obs [4, 8]: 55% and 88% | % visual injury, Obs [4, 9]: 70% and 85% | % visual injury, Obs [4, 10]: 58% and 93% | % visual injury, Obs ([4]; ECHCG, Compound A 7.5 g/ha, Fluazifop 0 g/ha): 55% | % visual injury, Obs ([4]; ECHCG, Compound A 7.5 g/ha, Haloxyfop-R-methyl 0 g/ha): 88% | % visual injury, Obs ([4]; ECHCG, Compound A 7.5 g/ha, Quizalofop-P-ethyl 0 g/ha): 88% | % visual injury, Obs ([4]; ECHCG, Compound A 10 g/ha, Fluazifop 0 g/ha): 58% | % visual injury, Obs ([4]; ECHCG, Compound A 10 g/ha, Haloxyfop-R-methyl 0 g/ha): 93% | % visual injury, Obs ([4]; ECHCG, Compound A 10 g/ha, Quizalofop-P-ethyl 0 g/ha): 93% | % visual injury, Obs [5, 7]: 40% | % visual injury, Obs [5, 8]: 0% and 10% | % visual injury, Obs [5, 9]: 45% | % visual injury, Obs ([5]; CYPES, Compound A 7.5 g/ha, Fluazifop 0 g/ha): 0% | % visual injury, Obs ([5]; CYPES, Compound A 7.5 g/ha, Haloxyfop-R-methyl 0 g/ha): 10% | % visual injury, Obs ([5]; CYPES, Compound A 7.5 g/ha, Quizalofop-P-ethyl 0 g/ha): 10% | % visual injury, Obs ([5]; CYPES, Compound A 10 g/ha, Fluazifop 0 g/ha): 0% | % visual injury, Obs ([5]; CYPES, Compound A 10 g/ha, Haloxyfop-R-methyl 0 g/ha): 25% | % visual injury, Obs ([5]; CYPES, Compound A 10 g/ha, Quizalofop-P-ethyl 0 g/ha): 25% | % visual injury, Obs ([6]; DIGSA, Compound A 7.5 g/ha, Fluazifop 0 g/ha): 0% | % visual injury, Obs ([6]; DIGSA, Compound A 7.5 g/ha, Haloxyfop-R-methyl 0 g/ha): 20% | % visual injury, Obs ([6]; DIGSA, Compound A 7.5 g/ha, Quizalofop-P-ethyl 0 g/ha): 20% | % visual injury, Obs ([6]; DIGSA, Compound A 10 g/ha, Fluazifop 0 g/ha): 8% | % visual injury, Obs ([6]; DIGSA, Compound A 10 g/ha, Haloxyfop-R-methyl 0 g/ha): 35% | % visual injury, Obs ([6]; DIGSA, Compound A 10 g/ha, Quizalofop-P-ethyl 0 g/ha): 35%

C#CCOC(=O)c1nc(-c2ccc3cc[nH]c3c2F)c(F)c(N)c1Cl [Compound B, propargyl 4-amino-3-chloro-5-fluoro-6-(7-fluoro-1H-indol-6-yl)pyridine-2-carboxylate]
% visual injury, Obs [1, 7]: 0% | % visual injury, Obs [1, 9]: 0% | % visual injury, Obs [2, 7]: 0% | % visual injury, Obs [2, 9]: 0% | % visual injury, Obs [3, 7]: 0% | % visual injury, Obs [3, 9]: 0% | % visual injury, Obs [5, 7]: 38% | % visual injury, Obs [6, 7]: 25% | % visual injury, Obs [6, 9]: 33%

COC(=O)[C@@H](C)Oc1ccc(Oc2ncc(C(F)(F)F)cc2Cl)cc1 [Haloxyfop-R-methyl, reference compound]
% visual injury, Obs ([1]; LOLMU, Compound A 0 g/ha, Haloxyfop-R-methyl 70 g/ha): 100% | % visual injury, Obs ([2]; AVEFA, Compound A 0 g/ha, Haloxyfop-R-methyl 70 g/ha): 100% | % visual injury, Obs ([3]; ALOMY, Compound A 0 g/ha, Haloxyfop-R-methyl 70 g/ha): 100% | % visual injury, Obs ([4]; ECHCG, Compound A 0 g/ha, Haloxyfop-R-methyl 70 g/ha): 100% | % visual injury, Obs ([5]; CYPES, Compound A 0 g/ha, Haloxyfop-R-methyl 70 g/ha): 35% | % visual injury, Obs ([6]; DIGSA, Compound A 0 g/ha, Haloxyfop-R-methyl 70 g/ha): 99%

CCCC(=NOCC)C1=C(O)CC(CC(C)SCC)CC1=O (stereo not shown) [Sethoxydim, reference compound]
% visual injury, Obs ([1]; 70 g ai/ha): 83% | % visual injury, Obs ([3]; 70 g ai/ha): 58% | % visual injury, Obs ([6]; 70 g ai/ha): 60%

CCON=C(CC)C1=C(O)CC(c2c(C)cc(C)cc2C)CC1=O (stereo not shown) [Tralkoxydim, 2-[1-(ethoxyimino)propyl]-3-hydroxy-5-mesitylcyclohex-2-enone, reference compound]
% visual injury, Obs ([1]; 100 g ai/ha): 68% | % visual injury, Obs ([2]; 100 g ai/ha): 88% | % visual injury, Obs ([3]; 100 g ai/ha): 15% and 8% | % visual injury, Obs ([4]; 100 g ai/ha): 85% | % visual injury, Obs ([5]; 100 g ai/ha): 5% and 0% | % visual injury, Obs ([6]; 100 g ai/ha): 30% and 48%
